Data taken from the RNAGym collection of RNA variant scans (doi:10.1093/nar/gkz1192).
Read counts are not given, so values of variants with three or more changes are uncertain.

B1: CPEB3 Ribozyme (parent)
chain: UAACAGGGGGCCACAGCAGAAGCGUUCACGUCGCAGCCCCUGUCAGAUUCUGGUGAAUCUGCGAAUUCUGCUGUAUAUCUC

Variants of: B1
Experiment: self-cleavage, relative activity (ratio to wild type); higher = more cleavage; in vitro, sequencing
In short: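 For each CPEB3 ribozyme variant, relative activity is its cleaved/total read fraction divided by the unmutated ribozyme's. Barcoded error-prone PCR libraries were transcribed by T7 RNA polymerase (5 hours, 37°C) and held in DNase I for 15 min before an EDTA stop, with cleavage occurring throughout. Template-switching reverse transcription and Illumina sequencing were used to read the RNAs. A 5-read minimum applied, and results are the mean of three batches.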

| Variant | self-cleavage |
| --- | --- |
| G6U A13G U31G A45U A64G U78C | 0.35 |
| G6U A15G A35U U72A | 0.06 |
| G6U A15G C17U A35U U43C U49C G61C | 0.12 |
| G6U A15U A35G U51A U60A A75C | 0.17 |
| G6U A15U A47C | 0 |
| G6U A15U U31C A47G | 0.08 |
| G6U A18G A21G U41C U78C | 0.08 |
| G6U A18G A35U U49C | 0 |
| G6U A18G U26A U60C U76A | 0.06 |
| G6U A18G U31G A45U A64G | 0.16 |
| G6U A18G U43C U51G A65G G73C | 0.05 |
| G6U A18U U26C A35U U48C C71U | 0.05 |
| G6U A18U U60A | 0.38 |
| G6U A20G G33A A56U U78A | 0.09 |
| G6U A20U A57U | 0.09 |
| G6U A20U U25C U72C | 0.54 |
| G6U A21C U48C | 0.05 |
| G6U A28G U31C U72C U76C | 0.09 |
| G6U A28U A35U U43C A45G U54C G61C | 0.04 |
| G6U A35G A47U U66C | 0.25 |
| G6U A35G C44U A57G | 0.04 |
| G6U A35U U43C G61C | 0.16 |
| G6U A57G C62U | 0.16 |
| G6U C11U A21G U26C A35U C79U | 0.02 |

| Variant | self-cleavage |
| --- | --- |
| G6U C17U A20G U25C A47G | 0.34 |
| G6U C23G A45U | 0.11 |
| G6U G7A A13G U51C | 0.37 |
| G6U G8A A13G U25A A45G | 0.07 |
| G6U G9A C23A U25G A56C | 0.2 |
| G6U G9A C38U U72C U74C U80C | 0.1 |
| G6U G9U A13G | 0.07 |
| G6U G9U U49C A64G G73A A75U | 0.27 |
| G6U G30A G46A U67C A75U | 0.06 |
| G6U U25C U49C U51C A65G | 0.19 |
| G6U U25C U51C G52U U60A U69C U72A | 0 |
| G6U U26C A28G | 0.38 |
| G6U U26C C44G U78C | 0.21 |
| G6U U31A A56U | 0.25 |
| G6U U41C U48C | 0.33 |
| G6U U41C U49C G52A | 0.26 |
| G6U U43C A77G | 0.2 |
| G6U U48C A64G | 0.19 |
| G6U U48C G52U U67A U69C | 0.23 |
| G7A A13U U58G | 0.24 |
| G7A A15G A18G U25C A45U A56U | 0.31 |
| G7A A15G A45G U54C A64U U69C | 0.03 |
| G7A A15G U60C | 0.08 |
| G7A A15G U67A U76C | 0.05 |

| Variant | self-cleavage |
| --- | --- |
| G7A A15U A18G C23G U54C U72C | 0.04 |
| G7A A15U G36U U51C | 0.06 |
| G7A A15U U25C U74A | 0.36 |
| G7A A15U U26A U54G | 0.07 |
| G7A A15U U31C U41A U43C A56U | 0.06 |
| G7A A18G A64G U76C A77G | 0.04 |
| G7A A18G G24U U25A G55A U67A A77G | 0.03 |
| G7A A18G U26A A35G U48C | 0.26 |
| G7A A18U A35G U72C | 0.35 |
| G7A A18U C23A A56G A64U U69C A77U | 0.05 |
| G7A A20G G46U U54A U69C A77G | 0.05 |
| G7A A20G G52A A57G A64G | 0.07 |
| G7A A20G U25C A35U | 0.03 |
| G7A A20U U41C A45U | 0.05 |
| G7A A21G A45C U80C | 0.28 |
| G7A A21G A47G A65G | 0.13 |
| G7A A21G U25C C29U C40U U43C U51C | 0.04 |
| G7A A21G U26C A57U | 0.09 |
| G7A A21U C37G C59G A64G | 0.03 |
| G7A A35G U41G U51C U69C | 0.05 |
| G7A A35U A47C A56U U69A U72C | 0.07 |
| G7A A35U U69C U78C | 0.06 |
| G7A A56G U72C U80A | 0.06 |
| G7A C11U U51C | 0.11 |

| Variant | self-cleavage |
| --- | --- |
| G7A C12G A28U U80C | 0.19 |
| G7A C23G A35U C37A A57G U74A | 0.02 |
| G7A C32U A47G | 0.42 |
| G7A C38A U41G A56G A57G | 0.08 |
| G7A C39U U54A U58C U60C U78A | 0.05 |
| G7A G10A A64G | 0.07 |
| G7A G10C U25A A64U | 0.06 |
| G7A G16C A21G G36A U66C U69C | 0.09 |
| G7A G24A U25C G42A U74A | 0.06 |
| G7A G36A A47G U66C A75U | 0.06 |
| G7A G55U U72C | 0.28 |
| G7A U25C G30U U76A | 0.34 |
| G7A U25C U54A | 0.08 |
| G7A U26A U54A A57G A65G U69C A77G | 0.06 |
| G7A U26C U31A A35U U49C U66C A75G | 0.03 |
| G7A U26C U48C A56G | 0.04 |
| G7A U26G U51A U54A A64U | 0.06 |
| G7A U31C A57G | 0.08 |
| G7A U43A C62G U74A U80C C81G | 0.13 |
| G7A U43C U60C U66C U80C | 0.06 |
| G7A U48C G55A | 0.19 |
| G7A U49A U54A A75G | 0.04 |
| G7A U49C U51A A75G | 0.07 |
| G7A U51A C62U U67C U74C | 0.12 |

| Variant | self-cleavage |
| --- | --- |
| G7A U51G U69C | 0.09 |
| G7A U58A A64U U66C U80C | 0.09 |
| G7A U60A U80A | 0.08 |
| G7C A13G A20G U25C G61A | 0.1 |
| G7C A13G G24A U25C U41C | 0.44 |
| G7C A13G U60A U74C | 0.37 |
| G7C A13U A28G C34U C39A U69C U76C | 0.04 |
| G7C A13U C29U A35G U54A | 0.08 |
| G7C A15G U51G A56U | 0.06 |
| G7C A15U U72C U78C | 0.65 |
| G7C A18C U41C U67A A75G | 0.02 |
| G7C A18G A45U U60C U69C | 0.06 |
| G7C A18G U43C G52A U60C | 0.37 |
| G7C A21G U26C U41C A65G U66A U69A | 0.28 |
| G7C A28G A45U U74A | 0.27 |
| G7C A28G C34A U80C | 0.08 |
| G7C A28G C34U U67A U76C | 0.07 |
| G7C A35C G36A A45U U49C | 0.07 |
| G7C A35C U48A | 0.04 |
| G7C A35G U43A A47C U67A U80A | 0.05 |
| G7C C23U A57G U60C | 0.05 |
| G7C C32A A77U | 0.24 |
| G7C G8A A21U U25G U26A A56G U72A | 0.06 |
| G7C G30A A75G | 0.4 |

| Variant | self-cleavage |
| --- | --- |
| G7C G52C U67C U78C | 0.18 |
| G7C U25C A45C A64U | 0.15 |
| G7C U25C U51C U76A U80C | 0.25 |
| G7C U26A U43C U49C U67C | 0.06 |
| G7C U31A U51C A56U U58C | 0.06 |
| G7C U31C U41C A57G U72C C81U | 0.48 |
| G7C U31C U69C | 0.06 |
| G7C U41C A57G U78C | 0.31 |
| G7C U51A A64G U66C | 0.07 |
| G7C U54C A56U U60C U74C A75G | 0.05 |
| G7U A13G A15G U69C U80C | 0.22 |
| G7U A15G A47U U69A U80C | 0.02 |
| G7U A15U U80C | 0.25 |
| G7U A18G A21G U31C | 0.07 |
| G7U A18G A21U C44U A56G U60G U67C | 0.08 |
| G7U A18G U48C | 0.22 |
| G7U A18G U78C | 0.2 |
| G7U A18U G36U A45U | 0.04 |
| G7U A20G U51A | 0.28 |
| G7U A20U A45U G63A | 0.17 |
| G7U A20U U72A A75C | 0.08 |
| G7U A21G U31C A45C U49A U69A | 0.05 |
| G7U A21G U49C A65G U76A | 0.11 |
| G7U A28U U48C | 0.07 |

| Variant | self-cleavage |
| --- | --- |
| G7U A35C U58C | 0.17 |
| G7U A35G A47G | 0.22 |
| G7U A45G A56U A64G U67A | 0.14 |
| G7U A45G U51C | 0.1 |
| G7U C11G G33A U48A U78C | 0.06 |
| G7U C11U A13C G22C U41A G73U | 0.21 |
| G7U C17U A47U U54C A64G | 0.08 |
| G7U C23U G30C A47U | 0.05 |
| G7U C29U G30A C40A | 0.06 |
| G7U C37A U54C | 0.06 |
| G7U G8A A13G G42A U48C A56U | 0.1 |
| G7U G10A A15U U31C G52C | 0.34 |
| G7U G16A U41A U58C U69C | 0.05 |
| G7U G19C U49C C62U A65G U72C | 0.04 |
| G7U G19U C23A G30A A35U G36A C38A | 0.06 |
| G7U G36U U49C U66C U78C | 0.04 |
| G7U G42U A64C | 0.1 |
| G7U U25C A45U A57G A64G | 0.05 |
| G7U U25C U26C C29A G42A | 0.18 |
| G7U U25C U54C A77G | 0.2 |
| G7U U26C C27U | 0.05 |
| G7U U31C A45G U51A U58C G63U A65G | 0.04 |
| G7U U41C U49C | 0.07 |
